The source of these data is PubChem BioAssay AID488969 (Vanderbilt High Throughput Screening Facility, 2010).

Structures are written as SMILES. Over roughly 110,000 compounds, “z-score” has its median near -0.1; the highest 2% begin near 2. The list shows a part of the results. Active and inactive are the calls of the source.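 How the source made its calls: active means z-score in the third read window above 3 or below -3; inactive means the rest.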

For this experiment, the target named is Metabotropic glutamate receptor 8 (Rattus norvegicus) (UniProt P70579). In words: mGluR8 Gi/Go-coupled signaling modulation – cell-based, rat, thallium flux, HTS, primary screen (AID 488969). Particulars: HEK293 rat mGluR8, GIRK (G protein-gated inwardly rectifying potassium channel) thallium flux, FluoZin2; at 10 µM; stronger effect = higher value; submaximal glutamate (EC20) added with thallium.
Chain of UniProt P70579 (P70579 whole entry, looked up): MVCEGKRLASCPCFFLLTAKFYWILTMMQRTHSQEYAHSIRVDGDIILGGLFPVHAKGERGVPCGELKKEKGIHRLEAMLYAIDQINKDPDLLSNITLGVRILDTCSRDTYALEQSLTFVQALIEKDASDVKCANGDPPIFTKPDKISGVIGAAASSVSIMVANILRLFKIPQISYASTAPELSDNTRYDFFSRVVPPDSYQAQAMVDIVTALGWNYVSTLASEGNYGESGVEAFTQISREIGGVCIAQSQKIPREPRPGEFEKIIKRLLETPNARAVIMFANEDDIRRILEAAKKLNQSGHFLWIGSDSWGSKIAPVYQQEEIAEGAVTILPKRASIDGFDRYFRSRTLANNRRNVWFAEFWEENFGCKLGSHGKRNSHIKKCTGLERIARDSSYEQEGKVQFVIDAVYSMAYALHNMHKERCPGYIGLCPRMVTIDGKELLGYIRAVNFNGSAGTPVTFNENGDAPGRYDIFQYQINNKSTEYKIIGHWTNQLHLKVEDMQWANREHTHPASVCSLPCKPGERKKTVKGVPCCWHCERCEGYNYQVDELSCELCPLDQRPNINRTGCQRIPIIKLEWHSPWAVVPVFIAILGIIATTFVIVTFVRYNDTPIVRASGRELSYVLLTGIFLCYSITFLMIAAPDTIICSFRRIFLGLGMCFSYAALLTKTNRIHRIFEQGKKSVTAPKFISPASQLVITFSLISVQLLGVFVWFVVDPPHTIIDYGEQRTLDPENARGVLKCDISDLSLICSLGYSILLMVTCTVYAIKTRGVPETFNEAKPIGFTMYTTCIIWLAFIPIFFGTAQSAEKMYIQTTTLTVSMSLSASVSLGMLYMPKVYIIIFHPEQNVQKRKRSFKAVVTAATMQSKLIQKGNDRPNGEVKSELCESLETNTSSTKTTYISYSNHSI
Compound `O=C(CN(Cc1cccs1)C(=O)CNS(=O)(=O)c1ccc(F)cc1)NCc1ccco1` yielded a z-score of -0.317.
For `CCCc1sc(N/N=C/c2ccccn2)nc1-c1ccc(F)cc1`, the z-score came to 1.53.
The same measure for `CCOC(=O)c1[nH]nc(-c2cc(CC)c(O)cc2O)c1-c1cscn1`: -0.167; for `Cc1csc2ncc(C(=O)N(Cc3ccccc3)c3ccccn3)c(=O)n12`: -0.103; for `CCCCCCOC(=O)CCc1c(C)nc(N)[nH]c1=O`: -0.0673.
To `COc1cc(C(=O)O)ccc1OC(C)=O` belongs -1.37; to `O=C(O)CCCCCNC(=O)c1ccc(Br)cc1`, 0.224; to `N#CCOC(=O)c1sccc1-n1cccc1`, -0.0708.
The same measure for `O=C(CCc1nc(-c2ccccc2F)no1)NCc1ccco1`: 0.00484; for `CCOc1ccc(NC(=O)COC(=O)c2ncc(Cl)c(Cl)c2Cl)cc1`: -0.271; for `COc1cc(OC)cc(OCC(O)Cn2cnc(-c3ccccc3)c2)c1` (stereo not given): 0.0129.
Turning to `Cc1[nH]c2ccccc2c1/C=N/NC(=O)c1cccc(S(=O)(=O)Nc2ccccc2Cl)c1`, the z-score is -0.545.
With `CCc1nnc(NCC(=O)N2CCc3ccccc32)s1`, the z-score is -0.963.
For the compound `COc1ccccc1C(=O)Nc1cc2cc(Br)ccc2oc1=O`, the z-score is 0.255.
To `O=C1CC(N2CCC(O)CC2)C(=O)N1c1ccc(Br)cc1` (stereo not given) belongs -0.0798.
The same measure for `COc1ccc(C(=O)OCC(=O)NCc2ccc3c(c2)OCO3)cc1[N+](=O)[O-]`: -0.193; for `O=C1CC(C(=O)Nc2ccc(Cl)cc2[N+](=O)[O-])C2(CCCCC2)O1` (stereo not given): -0.203.
The same measure for `O=[N+]([O-])c1ccc(Cl)c(/C=N/N2CCN(Cc3ccc(Cl)cc3)CC2)c1`: 0.401; for `CC1CCCCC1NC(=O)CSc1nnc(COc2ccccc2Cl)o1` (stereo not given): -0.148.
`CCCCC(=O)Nc1ccc(C(=O)NNC(=O)CCCOc2ccc(Cl)cc2Cl)cc1` showed a z-score of -0.184.
`CC1(C)CC(=O)C(C(C2=C(O)CC(C)(C)CC2=O)c2ccc([N+](=O)[O-])cc2)C(=O)C1` (stereo not given): the z-score came to 0.238.
To `COc1ccc(CCNC(=O)CN(C2CCCCC2)S(C)(=O)=O)cc1OC` belongs -0.37; to `Cc1ccc(Nc2nc(CSc3nnc(-c4ccncc4)n3-c3ccccc3C)cs2)cc1`, -0.034.
To `CCOC(=O)c1ccccc1NC(=O)c1nc2nccc(C)n2n1` belongs -0.445; to `FC(F)Sc1ccc(-n2cc(-c3ccc(Cl)cc3)[n+]3c2CCC3)cc1`, 0.00901; to `COC(=O)c1c(/N=C/N(C)C)sc2c1CCN(c1ncc(C(F)(F)F)cc1Cl)C2`, -0.0857.
To `C=CCc1c(C)nc(-c2ccccc2)nc1Nc1ccccc1O` belongs -0.183; to `COC(=O)C1CN(S(=O)(=O)c2ccccc2)CCN1S(=O)(=O)c1ccccc1` (stereo not given), -0.636; to `FC(F)(F)c1cccc(NC(=S)NC2CCCC2)c1`, 1.26.
`Cc1cc(N)n2ncc(-c3ccc(Cl)cc3)c2n1` displayed a z-score of 0.0522.
The same measure for `COc1ccc(S(=O)(=O)Nc2ccc3oc(C)c(C(=O)O)c3c2)cc1`: -1.25; for `NC(=O)c1cc2ccccc2o/c1=N\NC(=O)c1ccco1`: -0.236.
The same measure for `O=C(CCCOc1ccccc1)n1nnc2ccccc21`: -0.21.
The same measure for `O=C(O)C1CCCCC1C(=O)NCCC(c1ccccc1)c1ccccc1` (stereo not given): -0.0345.
In turn, `CC(/C=C1\SC(=O)N(CC(=O)Nc2ccc(O)cc2)C1=O)=C\c1ccccc1` came in with a z-score of -0.378.
To `Cc1cccc(NC(=O)CNC(=O)COc2ccc(C(=O)c3ccc(F)cc3)cc2)c1C` belongs -0.158; to `Cc1cc(C)cc(N(CC(=O)N2CCc3ccccc32)S(=O)(=O)c2c(C)noc2C)c1`, 0.0867; to `Cc1nc2ccc(N=NC3=C(O)CC(C)(C)CC3=O)cc2s1`, 0.18.
To `CCN(CC(=O)Nc1ccc(OC)c(OC)c1)S(=O)(=O)c1ccc(C)cc1` belongs 0.404; to `Cc1csc(NC(=O)c2ccc(C)o2)n1`, -0.297; to `COc1ccc(C2CC(=O)C(C=NCCCN3CCOCC3)=C(O)C2)cc1` (stereo not given), 0.896.
The same measure for `COc1ccccc1/C=C\C=N\NC(=O)CCn1nnc2ccccc21`: -0.0445; for `COC(=O)c1cc(CNC(=O)c2ccccc2Cl)ccc1OC`: -0.349.
`CN1C2C=C3C(C#N)=C(N)C(C#N)(C#N)[C@@H](c4cccs4)C3C1CC2` (stereo not given in full) had a z-score of 2.54.
The compound `CCOCCCNC(=O)C1c2ccccc2C(=O)N2CCc3ccccc3C12` (stereo not given) showed a z-score of -0.66.
To `CCOC(=O)C1=C(C)NC(SC)=NC1c1ccccc1` (stereo not given) belongs -0.897.
The same measure for `CCN1CC2CCCC3(C1)C(=O)NC1(CCCCC1)N=C23` (stereo not given): -0.0467; for `O=c1[nH]c2ccc(S(=O)(=O)N3CCCCC3)cc2[nH]c1=O`: -0.0803.
In the case of `Oc1ccc(N=C/C=C/c2cccc(Br)c2)cc1-c1nc2ccccc2s1`, the z-score is -0.257.
To `NC(=O)c1ccccc1NS(=O)(=O)c1cccs1` belongs -0.123; to `COc1ccc(-c2nn(-c3ccccc3)cc2C(=O)Nc2nc(CC(C)=O)ns2)cc1`, -0.926; to `Cc1ccc(CNC(=O)/C=C/c2c(Cl)cccc2Cl)cc1`, -0.641.
The same measure for `O=C(CN1CCc2ccccc2C1)Nc1ccc(Br)cc1`: -0.0264.
Turning to `CC(=O)c1ccc(NC(=O)Oc2ccccc2)cc1`, the z-score is 0.12.
The same measure for `COc1ccc(NC(=O)c2nnn(Cc3ccc(SC)cc3)c2N)c(OC)c1`: -0.796; for `Cc1nn(-c2ccccc2)c(N2CCCC2)c1/C=N/NC(=S)Nc1ccccc1C(F)(F)F`: 0.583.
Compound `CC(C(=O)N1CCC(C(N)=O)CC1)N(c1ccc(Oc2ccccc2)cc1)S(C)(=O)=O` (stereo not given) showed a z-score of -0.0832.
The same measure for `O=C(O)CC(c1ccccc1)n1cnnn1` (stereo not given): 0.165.
To `COC(C(=O)Nc1ccc(F)c(F)c1)c1ccccc1` (stereo not given) belongs -0.336; to `COc1ccc(C)cc1NC(=O)CN1CCN(S(=O)(=O)c2ccc(C(C)C)cc2)CC1`, 0.0553.
To `O=C(Nc1nncs1)C1(c2ccccc2)CCCC1` belongs -0.359; to `CCCc1oc(C(=O)O)cc1CN1CCCC1`, -0.285; to `CC(C)Nc1nc(NC(C)C)nc(C(=O)OCCO)n1`, -0.00568.
Compound `COc1cc(COc2ccc3c(C)c(Cc4ccccc4)c(=O)oc3c2C)cc(OC)c1OC` showed a z-score of -0.127.
Compound `COc1cc(OC)cc(C(=O)N[C@H](C(=O)OCC(=O)c2ccc3c(c2)NC(=O)CO3)C(C)C)c1` showed a z-score of -0.114.
`CCC(Sc1n[nH]c(=O)[nH]c1=O)C(=O)OCc1ccccc1` (stereo not given): the z-score was determined as 0.193.
To `CC(C)C(O)P(=O)(OCc1ccccc1)c1ccc(N(C)C)cc1` (stereo not given) belongs 0.127; to `Cc1nn(Cc2ccc(C(=O)Nc3ccccc3C(F)(F)F)o2)c(C)c1Br`, 1.06; to `Cc1ccc(-n2c(=O)c(C#N)cc3c(=O)n4ccccc4nc32)cc1C`, -0.323.
The same measure for `FC(F)(F)c1ccc(N2CCOCC2)c(Nc2nc3ccccc3n3cnnc23)c1`: -1.75; for `Cc1ccc(NN=C2c3ccccc3-c3ccccc32)cc1`: 0.283.
The same measure for `Cc1cc(NC(=O)CSc2ccc(-c3nc4cc(C)c(C)cc4[nH]3)cn2)no1`: -2.57; for `Cc1nnc(SCc2cc(=O)oc3ccc4ccccc4c23)n1Cc1ccccc1`: -0.192.
The compound `CCOC(=O)c1cc2c(n(-c3ccccc3)c1=O)CC(C)(C)CC2=O` came in with a z-score of 0.207.
The same measure for `NC1=NC(=O)/C(=C/c2cn(CCC(=O)O)nc2-c2ccc(F)cc2)S1`: -0.412; for `Cc1cccc(Oc2sc(C(=O)c3ccccc3)c(N)c2C#N)c1`: 0.0116; for `COc1cc2c(cc1OC)C(c1ccccc1O)N(C1CC(=O)N(c3ccccc3)C1=O)CC2` (stereo not given): -0.0768.
To `CCCC(C)c1nnc(NC(=O)C2CCCO2)s1` (stereo not given) belongs -0.319.
On to `CCN1CCN(S(=O)(=O)c2cccc([N+](=O)[O-])c2)CC1`, for which the z-score is -0.573.
The same measure for `Cc1[nH][nH]c(=O)c1N=Nc1ccccc1`: 1.02; for `Cc1nccn1CCc1nc(N)nc(N)n1`: active: 7.57.
To `COc1ccc(/C=N\NC(=O)c2ccc(=O)[nH]n2)cc1O` belongs 0.0149.
The same measure for `CCN(CC)S(=O)(=O)c1cccc(C(=O)NCCc2ccccc2)c1`: -0.166; for `c1ccc(Sc2cccc3ccccc23)c(CNC2=NCCN2)c1`: 0.832; for `COC(=O)c1ccc(C)c(NC(=O)c2ccc(Cl)c([N+](=O)[O-])c2)c1`: 1.44.
Regarding `Cc1cc(OC(=O)c2c(Cl)cccc2Cl)nc(C)n1`, the z-score is 0.102.
The same measure for `CC1(C)CC(=O)C=C(NNC(=O)C2CCCCC2)C1`: 0.121; for `CCOc1cc(/C=C2/NC(=O)N(CC(=O)Nc3cccc(C)c3)C2=O)ccc1OC`: -0.292.
The same measure for `CC1=NN(c2ccc(C)cc2)C(=O)/C1=C\c1ccc(Br)s1`: -0.327.
Take `Cc1cnn(CCC(=O)NNC(=S)Nc2ccc(F)cc2)c1`: the z-score was found to be 0.0789.
Regarding `Cc1ccc(N/N=C(/Sc2nnnn2-c2ccccc2)C(=O)c2ccccc2)cc1`, the z-score is 0.5.
The same measure for `Cc1cc(C)c(S(=O)(=O)Nc2cccc(/C=C/C(=O)O)c2)c(C)c1`: -0.369; for `CCOC(=O)CSc1cc(CSc2ccccc2)nc(-c2ccccc2)n1`: active: 4.85.
The same measure for `O=C1C2ON(c3ccccc3)C(c3ccncc3)C2C(=O)N1c1ccccc1` (stereo not given): -0.179.
The same measure for `COc1ccc(OC)c(CN(CCN2CCOCC2)C(=O)Nc2cccc(Cl)c2)c1`: -0.649; for `CCOC(=O)c1ccc(NC(=S)N2CCC(C(N)=O)CC2)cc1`: -0.137; for `CC(C)NC(=O)c1cc(-c2ccco2)nn1-c1ccc(Cl)cc1`: -0.693.
In turn, `C[n+]1c2n(c3ccccc31)N=C(c1ccc(Br)cc1)CS2` registered a z-score of 1.16.
To `O=C(Nc1ccccc1)N1CCN(c2ncccn2)CC1` belongs 0.67; to `Cc1ccc(NC(=O)CN(C)Cc2nc3ccccc3c(=O)[nH]2)c(Br)c1`, -0.0717; to `CC(C)C(=O)N1CCC(c2nc(-c3ccc(S(=O)(=O)N4CCCC4)cc3)no2)CC1`, -0.431.
Compound `Cc1ccc(C(=O)N2CCN(c3ccc([N+](=O)[O-])c(NCc4ccco4)c3)CC2)cc1` gave a z-score of -0.504.
`COc1ccccc1NC(=O)NCCN1C(=O)C2C3C=CC(C3)C2C1=O` (stereo not given) came in with a z-score of 0.322.
`Cc1cccc(NC(=S)NC(=O)c2cccs2)n1`: the z-score was active: 5.04.
The same measure for `COc1ccc(S(=O)(=O)Nc2cccc(/C=C/C(=O)O)c2)cc1`: 0.898.
The same measure for `CCNc1nc(CSc2ccccc2)nc2sc(C)c(C)c12`: -0.00743.
The same measure for `CCOC(=O)N1CCC(NC(=O)c2ccc(CS(=O)(=O)c3ccc(OC)cc3)o2)CC1`: -0.141.
For the compound `O=C(NCCc1ccccc1)c1ccco1`, the z-score was -0.2.
To `C=CCn1c(SCC(=O)NCCOC)nnc1-c1cc2c(s1)CCC(CC)C2` (stereo not given) belongs -0.842; to `CC(CC(=O)NC1CCSC1=O)c1ccccc1` (stereo not given), -0.254.
